This note sets out measurements from the supplement of paper PMC11417369.

± gives the standard deviation of the averaged measurements. This is one part of the list.

The experiment relates to PfAP2-G AP2 domain (GST-tagged). The experiment is described as follows: gcPBM binding intensity (ln(normalized median fluorescence intensity)); higher = stronger DNA binding. An outline of the steps: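 Alexa488 anti-GST antibody, scanned at 488 nm, detected GST-tagged P. falciparum DNA-binding domains that had been expressed in E. coli and incubated for 1 h on an Agilent 4 × 180k array. The array carried primer-extended double-stranded 36-bp intergenic genomic probes and negative controls. Binding intensity is the highest Masliner-normalised natural-log median intensity across replicate spots of either orientation of each probe.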
In the case of “TATATATATAACATATGTACATATATTTATAAATAC [XGTACX_site5484]”, the “gcPBM binding intensity (ln)” value was 11.2 ± 0.62.
The value for “ATTATAAAAAAGAAACGTACATATTTATTGTTTTTT [XGTACX_site2161]” was 11.2 ± 0.74; that for “TTATTTTTATTATAAATTATAAAATATAAATAAATA [GTGCAC_negctrl_site616]” was 9.51 ± 0.13.
The value for “TAAATCCGCACGCACACACACATATTAATAAAAAAA [CACACA_site7800]” was 10.6 ± 0.47; that for “CATGAATTTTTTTAATGTACATTCACATCATAAAAA [XGTACX_site7475]” was 11.1 ± 0.6; that for “ATATATTATATATATAGTACGTATATAAATTTAATT [XGTACX_site5041]” was 11 ± 0.69.
The value for “GAAACTATGTAATGCACACCAAAATAAAATTATTAA [CACACA_site1904]” was 10.1 ± 0.071; that for “TCTTCTTAACCAACTATGAAAAGGAAAAATATAACA [GTGCAC_negctrl_site565]” was 10 ± 0.18; that for “TATAATAATACTTATTGTACTATTAGTTTAATTCAT [XGTACX_site6638]” was 11.1 ± 0.67.
For “TAATATAGAAAATGCATACACACTTTATATATATAT [CACACA_site911]”, the “gcPBM binding intensity (ln)” value turned out to be 9.9 ± 0.11.
“AGACGATAAATCATTCATTCATTTACCATCCAAAAA [CACACA_negctrl_site802]”: the “gcPBM binding intensity (ln)” value worked out at 9.78 ± 0.057.
In the case of “TTTTAATTAGTACAAACACACATATACAGACAAAAA [CACACA_site2563]”, the “gcPBM binding intensity (ln)” value amounted to 11.2 ± 0.69.
Next, “AATATATATTAATACACACACACATATATATATATA [CACACA_site3786]”: 10.3 ± 0.47; “TGATCATAGAAACACACACACAAAAAAAAAAAAAAA [CACACA_site4008]”: 9.78 ± 0.47; “TACTATTATTATTGCACACTTATTATCCCTCGGATA [CACACA_site162]”: 10.1 ± 0.16.
Regarding “AAAATTTTTTTTGGCGCACACTAATAATAAAATATA [CACACA_site470]”, the “gcPBM binding intensity (ln)” value amounted to 10.7 ± 0.57.
The value for “TAAAACTTATACAAATGTACAAATATATATATATAT [XGTACX_site4661]” was 10.5 ± 0.4.
The value for “CTTTTTAATGAATACACACACACACCGATATATATA [CACACA_site5296]” was 10.2 ± 0.29; that for “GAATAATATGGACATACACACATATACATACCTATA [CACACA_site7075]” was 10.9 ± 0.63; that for “AAATATTATTGACGATGTACTTCTATTCATAAGTAT [XGTACX_site3964]” was 11.3 ± 0.89.
Next, “TTCTTTTTTATTTATACATGCAATAAAAAATTGATT [TGCATGCA_site730]”: 9.925 ± 0.064.
Take “TTTTTTTAAAACAAAAAAAAAAAAAAAAAAAAAAAA [TGCATGCA_negctrl_site418]”: the “gcPBM binding intensity (ln)” value came out at 9.84 ± 0.4.
Next, TTGATAAAATCACTGGTGCATGTAGATATATAATAT: 10.06 ± 0.042; “AAGAGAGAGAAATATGCACACATAAGGGAAATAAAT [CACACA_site8300]”: 10.1 ± 0.19; “TATATATGTATGTATGTACACACAAAAAATGGAATA [CACACA_site9235]”: 11.4 ± 0.85.
The value for “GGATACATATGTAAAAGTACACATGAATATATACAT [XGTACX_site6469]” was 11.5 ± 1.
“GTAAAATTAAAAATAACACACAAAAAAAAAAAAAAA [CACACA_site800]”: the “gcPBM binding intensity (ln)” value turned out to be 9.67 ± 0.37.
The value for “TTATTATTAGAAAAAAGTACACATATAAAATGTTAC [XGTACX_site6426]” was 11.5 ± 1.1; that for “AAAAAAAAAAGAAAAAGTACATACATACATATATAT [XGTACX_site6405]” was 11.3 ± 0.83.
Next, “ATTAATATTTAGACTTGTACATATATAATATATGTC [XGTACX_site3766]”: 10.9 ± 0.64.
Next, “ATAAAATATCAATACCGTACACAAGCAGGTAAAATA [XGTACX_site3719]”: 11 ± 0.67.
Take “CTTTTTTGTAATAACACACACACAAACAGAAAAAAT [CACACA_site2075]”: the “gcPBM binding intensity (ln)” value stood at 10.5 ± 0.35.
The value for “AATATAAATATAAATTGTACTTAAAAATTTCACGCA [XGTACX_site5234]” was 11.1 ± 0.86.
Turning to “TTAAAAAACTATAATACACACCAAAAATATGCACAT [CACACA_site7079]”, the “gcPBM binding intensity (ln)” value came out at 10.4 ± 0.11.
The value for “TCCTTTTGAACCCTTTTTCTCACAAGACCTTTATAT [TGCATGCA_negctrl_site413]” was 10.3 ± 0.12; that for “TTTCGTTGTGTATTTTGTACATATTTTTAATTATAT [XGTACX_site6687]” was 10.9 ± 0.39.
In the case of “AAAAAAATAATGTACACACACATATATGTTTATATA [CACACA_site6234]”, the “gcPBM binding intensity (ln)” value was 11.4 ± 0.92.
“AATTAAAAAGTTTTTAATGTTTTTAATTTTTTCCAC [XGTACX_negctrl_site423]”: the “gcPBM binding intensity (ln)” value was 9.79 ± 0.25.
Next, “AAAGGTGTATTTAATACACACGTGTCATTAAAATTG [CACACA_site4508]”: 10.3 ± 0.13; “TATATAAATTATGTGAGTACATAATTTAGAAGGAAC [XGTACX_site2807]”: 11.4 ± 1.1.
With “AAGAAAAAGATGCGCATACACACAGATGAATAACAA [CACACA_site1627]”, the “gcPBM binding intensity (ln)” value was determined as 10.2 ± 0.13.
As to “TTTCTTTTTTAAATTAAAATTTTTTTTTTTTTCGGT [TGCATGCA_negctrl_site52]”, the “gcPBM binding intensity (ln)” value was determined as 9.55 ± 0.028.
Next, “TTATTTCAAAGTTGTTGTACAAAAATATATTTATAA [XGTACX_site5226]”: 11.3 ± 0.52; “TATAACAAAAAAAAATAAAAAATAAAACTATATATA [CACACA_negctrl_site504]”: 9.555 ± 0.007; “GTTATTATATATATGTGTACTTAAAAATTTTATGTC [XGTACX_site6084]”: 11.4 ± 0.95.
As for “TTTTTTTTTTATTCTTCACACATTTCCAATAAAAAA [CACACA_site5601]”, the “gcPBM binding intensity (ln)” value was determined as 10.2 ± 0.2.
Next, “ACCTAAAATAACTACACACACATAAAAAAAAAAAAA [CACACA_site2529]”: 10.1 ± 0.47; “AAAGAAGGGAAACACACACACACACCCACAAAAAAA [CACACA_site3766]”: 10.3 ± 0.33; “AAAAAAAAAAAAAAAACACACAGAAATATATATATA [CACACA_site4611]”: 10.1 ± 0.26.
The value for “AATAAAAAAAAAATAAATTTAATAATAATAATAAAA [CACACA_negctrl_site569]” was 9.29 ± 0.32; that for “TTTATATATTTTAGGAGTACATTAAATTATACCTTA [XGTACX_site5600]” was 11.5 ± 0.89; that for “TGTATATATATTTATGCATGCTGTGTGTATTCTTTT [TGCATGCA_site74]” was 9.98 ± 0.22.
The value for “TTTCTTTTTATATTCACACATAAATATATATATATA [CACACA_site6053]” was 10.1 ± 0.23.
As to “AAAAAAAAAAAACACACACACACATACCCATACATA [CACACA_site5575]”, the “gcPBM binding intensity (ln)” value was 10.2 ± 0.26.
Next, “TATATAAGGAAATATTGTACTTTTATATTTATATTA [XGTACX_site3814]”: 11.1 ± 0.77; “ATATAAAAATATAATACACACATAAAATATATTATA [CACACA_site969]”: 9.84 ± 0.042; “TGCTCTCTCTTGTTGTGTACATAATACAATATATAT [XGTACX_site7427]”: 11.3 ± 0.87.
The value for “TGTATGCTTACATAATGTACGGAAAAATAAAGGCAT [XGTACX_site6923]” was 11.2 ± 0.78; that for “ATATATAAATAATGTTGTACGTATTTCAAAAGTATG [XGTACX_site3363]” was 11.5 ± 0.95.
Next, “ATAATAATAATAAAAAGTACAAATTATTATATATAT [XGTACX_site5160]”: 11 ± 0.67.
On to “TACATTTAAAAAAAAACACACATATATATATATATA [CACACA_site2535]”, for which the “gcPBM binding intensity (ln)” value stood at 9.96 ± 0.53.
Next, “ATATATTTGTATAATAGTACGTACAGGCAAAATATA [XGTACX_site7396]”: 11.5 ± 0.86.
Next, “TAATAATTTTTTTTTTTTTTTTACGAAAATATGATT [GTGCAC_negctrl_site323]”: 9.59 ± 0.2.
Next, “TAATTATTTTCGGTACGTACTAATGTATATATAATT [XGTACX_site3895]”: 11.5 ± 0.85; “AACGTCTTTTTTTTTTTTTTTCTTTTTTTTTTTATT [CACACA_negctrl_site303]”: 9.57 ± 0.11.
On to “ATAATAAGAACTCAGTGTACTATCCTTTGAATTAAC [XGTACX_site8117]”, for which the “gcPBM binding intensity (ln)” value stood at 11.1 ± 0.69.
The value for “ATATTTATTCAATCCAGTACATATTATATATTGTAT [XGTACX_site184]” was 10.6 ± 0.35.
Take “ATAAAATTATATACGTGTACATATATATATTTATGT [XGTACX_site4653]”: the “gcPBM binding intensity (ln)” value was 11.4 ± 0.77.
Next, TAATTCTTGTAAAATGTGCGCAGTAGATATAGTTTT: 10.3 ± 0.14; “AGATATAAGAAAAGCACACACACACTAGAAAAAAAA [CACACA_site5559]”: 10.1 ± 0.11.
For the sequence “TTGCAAAATTGTTTTATCACAAATATATACTTAATA [CACACA_negctrl_site403]”, the “gcPBM binding intensity (ln)” value was determined as 9.88 ± 0.16.
Next, “TATAAAAGTGGACACACACACATATATATATATATA [CACACA_site4673]”: 11.3 ± 0.82; “ACACATCAAATATAAAAAAAAAATAACTATAAATAA [CACACA_negctrl_site587]”: 9.655 ± 0.007; “CCTTTAAGCAAAAACACACACACATATTTATTTATA [CACACA_site6294]”: 9.99 ± 0.14.
Next, “AATTTTTTTTTTTTGTTGCACTTTTAGAGTTTTAAT [GTGCAC_site9519]”: 10.2 ± 0.38; “TAATAAATAGGACACACACACATATTTATATATCAT [CACACA_site6771]”: 10.9 ± 0.63; “TATATATATATGTATGCATGTTGTTTTTTATTTAAT [TGCATGCA_site343]”: 10 ± 0.61.
Next, “CTATATTTCGTTGGACGTACAAATGTGATAATTAGG [XGTACX_site3232]”: 11.6 ± 0.91; “TTATTATTTGGTTATAGTACATAATATAATATATAT [XGTACX_site6911]”: 11 ± 0.72.
“ACATATGTATAATATGCACACGTCATTTTCCCCTTA [CACACA_site5194]”: the “gcPBM binding intensity (ln)” value stood at 10.05 ± 0.064.
Next, “ACTAAACTTATATGTACACACATATAACATTAATTT [CACACA_site2258]”: 11.5 ± 1.1; “TTTCTTTTTTCACGTGCATGCCATTTAAGTATTAAT [TGCATGCA_site651]”: 10.4 ± 0.21; “TTTGTTTGGTTTTGGTGTACTTTTTTTTTTTTTTCT [XGTACX_site2050]”: 11.6 ± 1.
Take “GAATTATAAGAATAAACACACAAGCTTAAAAAAAAA [CACACA_site1204]”: the “gcPBM binding intensity (ln)” value was 9.74 ± 0.18.
The value for “AGAATTCAACAATGTTGTACATACACACACACAAAA [XGTACX_site5035]” was 11.3 ± 0.8; that for “ATATGGCATATTTGTATTATACATACATATGTATCT [TGCATGCA_negctrl_site562]” was 10.1 ± 0.31; that for “AAATTATAATATAATACACACATAAAAAAAAAAAAA [CACACA_site7]” was 9.79 ± 0.38.
Next, “TTATTATTCAAGAGGAGTACATTATGTGTATAATAT [XGTACX_site4995]”: 11.5 ± 1.
